By IC50 is meant the dose at which the fit gives 50% viability; a fit beyond the top or the lowest dose is shown as a bound at that dose. AUC, from the same fit, is the share of area under the viability curve across the 256-fold dose range; values near 1 show little effect. An inferred top dose comes from the curve model; the source does not state it. For some assays here: Where an entry number is given, a second screen of the drug exists; the two often differ.
Columns and labels:
[1] = compound: Cc1cc([C@@H](C)Nc2ccccc2C(=O)O)c2nc(N3CCOCC3)cc(=O)n2c1 [AZD6482]; experiment: Viability of human cancer cell lines after 72 h of drug (GDSC screen)
Description: (§1)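 Human cancer cell lines in 384-well plates, medium with 10% serum, drug for 72 h over a 256-fold dose range (nine 2-fold or five 4-fold steps up to the top dose). Adherent lines were fixed and stained with the nucleic acid dye Syto60, suspension lines read with resazurin; signal relative to control wells, capped at 0 and 100%. One two-parameter sigmoid per drug and line, fitted in a mixed model over all curves with the slope shared within a line.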

[2] = compound: Cn1ncnc1[C@H]1c2n[nH]c(=O)c3cc(F)cc(c23)N[C@@H]1c1ccc(F)cc1 [BMN-673]; experiment: as above; details: top dose 10 µM; top dose inferred
Description: as §1

[3] = top dose 5 µM, screen: GDSC drug entry 1066, top dose inferred
[4] = top dose 5.12 µM, screen: GDSC drug entry 156

201T (lung adenocarcinoma, adherent)
AUC [1, 3]: 0.927 | IC50 [1, 3]: > 5 µM | AUC [1, 4]: 0.917 | IC50 [1, 4]: > 5.12 µM

BB30-HNC (head and neck, adherent)
AUC [1, 3]: 0.895 | IC50 [1, 3]: > 5 µM | AUC [1, 4]: 0.86 | IC50 [1, 4]: 4.13 µM | AUC [2]: 0.623 | IC50 [2]: 1350 nM

BC-3 (B-cell lymphoma, suspension)
AUC [1, 4]: 0.942 | IC50 [1, 4]: > 5.12 µM

BICR31 (head and neck, adherent)
AUC [1, 4]: 0.849 | IC50 [1, 4]: 3.89 µM

CAL-148 (breast, suspension)
AUC [1, 4]: 0.848 | IC50 [1, 4]: 3.38 µM

CHP-126 (neuroblastoma, suspension)
AUC [1, 3]: 0.981 | IC50 [1, 3]: > 5 µM | AUC [1, 4]: 0.941 | IC50 [1, 4]: > 5.12 µM | AUC [2]: 0.503 | IC50 [2]: 636 nM

COR-L279 (small cell lung carcinoma, suspension)
AUC [1, 3]: 0.988 | IC50 [1, 3]: > 5 µM | AUC [1, 4]: 0.956 | IC50 [1, 4]: > 5.12 µM | AUC [2]: 0.537 | IC50 [2]: 778 nM

Caov-3 (ovary, adherent)
AUC [1, 4]: 0.985 | IC50 [1, 4]: > 5.12 µM

DAN-G (pancreas, adherent)
AUC [1, 3]: 0.972 | IC50 [1, 3]: > 5 µM | AUC [1, 4]: 0.974 | IC50 [1, 4]: > 5.12 µM

DOHH-2 (B-cell lymphoma, suspension)
AUC [1, 4]: 0.883 | IC50 [1, 4]: > 5.12 µM

ECC12 (stomach, suspension)
AUC [1, 4]: 0.949 | IC50 [1, 4]: > 5.12 µM

GCIY (stomach, adherent)
AUC [1, 3]: 0.789 | IC50 [1, 3]: 2.53 µM | AUC [1, 4]: 0.9 | IC50 [1, 4]: > 5.12 µM

GMS-10 (glioma, adherent)
AUC [1, 3]: 0.915 | IC50 [1, 3]: > 5 µM | AUC [1, 4]: 0.931 | IC50 [1, 4]: > 5.12 µM

H-EMC-SS (chondrosarcoma, adherent)
AUC [1, 3]: 0.905 | IC50 [1, 3]: > 5 µM | AUC [1, 4]: 0.936 | IC50 [1, 4]: > 5.12 µM

HCC1599 (breast, suspension)
AUC [1, 4]: 0.954 | IC50 [1, 4]: > 5.12 µM

HCC-33 (small cell lung carcinoma, adherent)
AUC [1, 4]: 0.957 | IC50 [1, 4]: > 5.12 µM

HCE-4 (oesophagus, adherent)
AUC [1, 3]: 0.929 | IC50 [1, 3]: > 5 µM | AUC [1, 4]: 0.983 | IC50 [1, 4]: > 5.12 µM

HPAC (pancreas, adherent)
AUC [1, 3]: 0.88 | IC50 [1, 3]: > 5 µM | AUC [1, 4]: 0.965 | IC50 [1, 4]: > 5.12 µM

JHU-011 (head and neck, adherent)
AUC [1, 3]: 0.868 | IC50 [1, 3]: 4.43 µM | AUC [1, 4]: 0.944 | IC50 [1, 4]: > 5.12 µM

KMRC-1 (kidney, adherent)
AUC [1, 3]: 0.796 | IC50 [1, 3]: 2.5 µM | AUC [1, 4]: 0.778 | IC50 [1, 4]: 2.21 µM

KMS-12-BM (myeloma, suspension)
AUC [1, 3]: 0.851 | IC50 [1, 3]: 2.85 µM | AUC [1, 4]: 0.953 | IC50 [1, 4]: > 5.12 µM

KP-N-YS (neuroblastoma, adherent)
AUC [1, 4]: 0.966 | IC50 [1, 4]: > 5.12 µM

MDA-MB-231 (breast, adherent)
AUC [1, 3]: 0.933 | IC50 [1, 3]: > 5 µM | AUC [1, 4]: 0.943 | IC50 [1, 4]: > 5.12 µM

MDA-MB-436 (breast, adherent)
AUC [1, 3]: 0.804 | IC50 [1, 3]: 3.31 µM | AUC [1, 4]: 0.829 | IC50 [1, 4]: 4.36 µM

MG-63 (osteosarcoma, adherent)
AUC [1, 3]: 0.702 | IC50 [1, 3]: 1.28 µM | AUC [1, 4]: 0.798 | IC50 [1, 4]: 2.9 µM

MHH-NB-11 (neuroblastoma, adherent)
AUC [1, 4]: 0.97 | IC50 [1, 4]: > 5.12 µM

MIA-PaCa-2 (pancreas, adherent)
AUC [1, 3]: 0.929 | IC50 [1, 3]: > 5 µM | AUC [1, 4]: 0.977 | IC50 [1, 4]: > 5.12 µM | AUC [2]: 0.584 | IC50 [2]: 1090 nM

MM1S (myeloma, suspension)
AUC [1, 3]: 0.865 | IC50 [1, 3]: 4.04 µM

MOLM-13 (acute myeloid leukaemia, suspension)
AUC [1, 3]: 0.815 | IC50 [1, 3]: 2.53 µM | AUC [1, 4]: 0.864 | IC50 [1, 4]: 4.02 µM | AUC [2]: 0.636 | IC50 [2]: 1450 nM

MY-M12 (leukaemia, suspension)
AUC [1, 3]: 0.847 | IC50 [1, 3]: 4.41 µM | AUC [1, 4]: 0.883 | IC50 [1, 4]: > 5.12 µM

NB17 (neuroblastoma, adherent)
AUC [1, 3]: 0.716 | IC50 [1, 3]: 1.41 µM | AUC [1, 4]: 0.899 | IC50 [1, 4]: > 5.12 µM | AUC [2]: 0.671 | IC50 [2]: 2030 nM

NCI-H64 (small cell lung carcinoma, suspension)
AUC [1, 3]: 0.975 | IC50 [1, 3]: > 5 µM | AUC [1, 4]: 0.853 | IC50 [1, 4]: 2.5 µM

NCI-H510A (small cell lung carcinoma, semi-adherent)
AUC [1, 3]: 0.988 | IC50 [1, 3]: > 5 µM | AUC [1, 4]: 0.988 | IC50 [1, 4]: > 5.12 µM

NCI-H748 (small cell lung carcinoma, suspension)
AUC [1, 4]: 0.933 | IC50 [1, 4]: > 5.12 µM

NCI-H1417 (small cell lung carcinoma, suspension)
AUC [1, 3]: 0.833 | IC50 [1, 3]: 4.1 µM | AUC [1, 4]: 0.954 | IC50 [1, 4]: > 5.12 µM | AUC [2]: 0.256 | IC50 [2]: 108 nM

NCI-H1650 (lung adenocarcinoma, adherent)
AUC [1, 3]: 0.921 | IC50 [1, 3]: > 5 µM

NCI-H1734 (lung adenocarcinoma, adherent)
AUC [1, 3]: 0.957 | IC50 [1, 3]: > 5 µM | AUC [1, 4]: 0.89 | IC50 [1, 4]: > 5.12 µM

NCI-H1963 (small cell lung carcinoma, suspension)
AUC [1, 3]: 0.99 | IC50 [1, 3]: > 5 µM | AUC [1, 4]: 0.983 | IC50 [1, 4]: > 5.12 µM

NCI-H2052 (mesothelioma, adherent)
AUC [1, 3]: 0.641 | IC50 [1, 3]: 0.861 µM | AUC [1, 4]: 0.927 | IC50 [1, 4]: > 5.12 µM

NCI-H2171 (small cell lung carcinoma, suspension)
AUC [1, 4]: 0.992 | IC50 [1, 4]: > 5.12 µM

NCI-H2196 (small cell lung carcinoma, adherent)
AUC [1, 4]: 0.971 | IC50 [1, 4]: > 5.12 µM

NCI-H2228 (lung adenocarcinoma, adherent)
AUC [1, 4]: 0.921 | IC50 [1, 4]: > 5.12 µM

NK-92MI (lymphoid neoplasm, suspension)
AUC [1, 4]: 0.853 | IC50 [1, 4]: 3.57 µM

PA-1 (ovary, adherent)
AUC [1, 3]: 0.86 | IC50 [1, 3]: 2.8 µM | AUC [1, 4]: 0.99 | IC50 [1, 4]: > 5.12 µM

PANC-04-03 (pancreas, adherent)
AUC [1, 3]: 0.924 | IC50 [1, 3]: > 5 µM | AUC [1, 4]: 0.963 | IC50 [1, 4]: > 5.12 µM

RPMI-8226 (myeloma, suspension)
AUC [1, 3]: 0.946 | IC50 [1, 3]: > 5 µM | AUC [1, 4]: 0.991 | IC50 [1, 4]: > 5.12 µM | AUC [2]: 0.959 | IC50 [2]: > 10000 nM

SAT (head and neck, adherent)
AUC [1, 3]: 0.919 | IC50 [1, 3]: > 5 µM | AUC [1, 4]: 0.916 | IC50 [1, 4]: > 5.12 µM | AUC [2]: 0.846 | IC50 [2]: > 10000 nM

SCC-3 (B-cell lymphoma, suspension)
AUC [1, 4]: 0.997 | IC50 [1, 4]: > 5.12 µM

SF126 (glioma, adherent)
AUC [1, 3]: 0.95 | IC50 [1, 3]: > 5 µM | AUC [1, 4]: 0.8 | IC50 [1, 4]: 2.64 µM | AUC [2]: 0.759 | IC50 [2]: 3670 nM

SIG-M5 (acute myeloid leukaemia, suspension)
AUC [1, 4]: 0.883 | IC50 [1, 4]: 3.17 µM

SNU-475 (liver, adherent)
AUC [1, 4]: 0.981 | IC50 [1, 4]: > 5.12 µM

SU-DHL-1 (anaplastic large cell lymphoma, suspension)
AUC [1, 4]: 0.997 | IC50 [1, 4]: > 5.12 µM

SU-DHL-6 (B-cell lymphoma, suspension)
AUC [1, 3]: 0.522 | IC50 [1, 3]: 0.353 µM | AUC [1, 4]: 0.237 | IC50 [1, 4]: 0.0721 µM | AUC [2]: 0.995 | IC50 [2]: > 10000 nM

SUP-B15 (lymphoblastic leukaemia, suspension)
AUC [1, 3]: 0.85 | IC50 [1, 3]: 3.53 µM | AUC [1, 4]: 0.918 | IC50 [1, 4]: > 5.12 µM

TALL-1 (T-cell lymphoblastic leukaemia, suspension)
AUC [1, 4]: 0.99 | IC50 [1, 4]: > 5.12 µM

TE-441-T (rhabdomyosarcoma, adherent)
AUC [1, 4]: 0.958 | IC50 [1, 4]: > 5.12 µM

THP-1 (acute myeloid leukaemia, suspension)
AUC [1, 3]: 0.92 | IC50 [1, 3]: > 5 µM | AUC [1, 4]: 0.99 | IC50 [1, 4]: > 5.12 µM

UACC-812 (breast, adherent)
AUC [1, 4]: 0.978 | IC50 [1, 4]: > 5.12 µM

VM-CUB-1 (bladder, adherent)
AUC [1, 3]: 0.96 | IC50 [1, 3]: > 5 µM | AUC [1, 4]: 0.915 | IC50 [1, 4]: > 5.12 µM

VMRC-RCW (kidney, adherent)
AUC [1, 4]: 0.834 | IC50 [1, 4]: 3 µM

Source: the supplement of paper PMC4967469
